Results reported in PubChem BioAssay (NCI).
Several values for one entry are separate records, joined by “and”; a condition that tells them apart may be missing. Identical values can stand only once.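 Five concentrations, 48 hours, 96-well plates. Abbreviation: GI50, concentration required for 50% inhibition of growth. TGI marks complete inhibition of growth.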

Each compound was assayed on NCI-H322M lung (assay: NCI tumour cell line growth inhibition, 48 h).

Structure (SMILES)	GI50 [µM]	TGI
COC12C=C/C(=C(/C(=O)OCc3cncnc3)C(=O)CCCCCCCCC3(OC)C=C/C(=C(/C(=O)OCc4cncnc4)C(=O)CCCCCCCC1)O3)O2	0.801	1.92 µM
O=c1ccn2n1Cc1ccccc1C2	–	> 100 µM
CN(CCO)CC[C@H](CSc1ccccc1)Nc1ccc(S(=O)(=O)NC(=O)c2ccc(N3CCC([C@@H](O)c4ccccc4-c4ccc(Cl)cc4)CC3)cc2)cc1S(=O)(=O)C(F)(F)F	2.52	15.6 µM
COC(=O)c1ccc(-c2nc3cc(Cl)c(Cl)cc3nc2C#N)cc1	> 100	> 100 µM
COC(=O)/C=C\COCC1C2CCC(=O)C21 (centres undefined)	–	> 25 µM
C=CCOc1cc(NC(=S)c2ccoc2C)ccc1OC	–	> 100 µM
CCN1CCC(O)(c2ccc(Oc3ccccc3)cc2)C(C(=O)c2ccc(Oc3ccccc3)cc2)C1 (centres undefined)	–	26.5 µM
CC1(C)CC(C2=NCCO2)CC(C)(C)N1	–	> 100 µM
CC(C)(C)[Si](C)(C)OCC1OC(n2cnc3c(N)ncnc32)CC1O (centres undefined)	–	> 100 µM
CCOc1cccc(/C=N/N=C2\C(=O)Nc3c(Cl)cc(Cl)cc32)c1O	–	> 100 µM
C=C1C(=O)O[C@H]2[C@H]1CC/C(CNC(=O)/C=C/c1cc(OC)c(OC)c(OC)c1)=C\CC[C@@]1(C)O[C@@H]21	12	25.5 µM
COc1ccc(C(=S)N2CCN(c3cccc(C)c3)CC2)cc1OC	> 100	> 100 µM
CC(=O)C1(Cc2cccc3ccccc23)S(=O)(=O)OCCOS1(=O)=O	–	43.4 µM
C/C(=N\NC(=S)N1CC2CCC(CC2)C1)c1nccs1	–	14.3 µM
COc1cc(Br)c(C=Nc2cccc3cc(OC)c(OC)cc23)cc1OC	–	> 100 µM
CN1C2=C(CC3=C1CC(C)(C)CC3=O)C(=O)CC(C)(C)C2	–	> 100 µM
NS(=O)(=O)c1ccc(-n2nc(-c3ccc(Cl)cc3)cc2-c2cc(O)ccc2O)cc1	14.3	31.7 µM
Cc1c(C)c(C)c(-n2c(=O)n(C)c(=O)n2-n2c(=O)n(C)c(=O)n2-c2c(C)c(C)c(C)c(C)c2C)c(C)c1C	–	> 100 µM
CCN(CC)c1c(C(=O)/C=C/c2ccc(Cl)cc2)c(-c2ccccc2)nn(C)c1=O	–	4.32 µM
C=C1C(=O)O[C@H]2[C@H]1CC/C(COC(=O)CSCSCC(=O)OC/C1=C/CC[C@@]3(C)O[C@H]3[C@H]3OC(=O)C(=C)[C@@H]3CC1)=C\CC[C@@]1(C)O[C@@H]21	3.26	10.5 µM
NC(=O)C(=O)N/N=C1\C(=O)N(c2ccc(Cl)cc2Cl)C(=O)C1C(=O)Nc1ccc(Cl)cc1Cl (centres undefined)	–	> 100 µM
CNC(=O)Nc1nc2ccc([N+](=O)[O-])cc2[nH]1	–	> 100 µM
C=C[C@@]1(C)CC[C@@H]2[C@@]3(C1)O[C@H]3CC1[C@](C)(C(=O)OC)CCC[C@@]12C (some centres undefined)	–	32.1 µM
Cn1c(=O)c2c(nc3n(CCCCl)c(=O)ccn23)n(C)c1=O	–	> 100 µM

Structure (SMILES)	GI50 [µM]	TGI
[N-]=[N+]=NC(CCl)c1cn([C@H]2C[C@H](O)[C@@H](CO)O2)c(=O)[nH]c1=O (some centres undefined)	–	> 100 µM
O=C1Nc2ccccc2C1=Nc1cccc2ncccc12	–	> 100 µM
COc1ccc(C23C(=O)c4ccccc4N2O[C@H]2C(=O)N(c4ccccc4)C(=O)[C@H]23)cc1 (some centres undefined)	–	> 100 µM
C/C(N=NS(=O)(=O)c1ccccc1)=C1\C=CC=CN1O	–	> 100 µM
O=C(CCCCCCNC(=O)c1cnc(N(c2ccccc2)c2ccccc2)nc1)NO	3.15	> 78.8 µM
CCOC(=O)NC(Nc1ncccn1)(C(=O)OCC)C(F)(F)F (centres undefined)	–	> 100 µM
O=C(O)c1cc(CC2Cc3cc4c(cc3C2=O)CCC4)cc2c1CCC2 (centres undefined)	–	> 100 µM
CCOC(=O)c1nn2c(nc1=O)sc1ccc3ccccc3c12	–	> 100 µM
C=C(C)[C@@H]1CC[C@]2(C)CC[C@]3(C)[C@H](CC[C@@H]4[C@@]5(C)CC[C@H](O)C(C)(C)[C@@H]5CC[C@]43C)[C@@H]12	–	> 100 µM
C[C@]12C[C@H](CCCCCCNCCOC(=O)NCCCc3ccc(N(CCCl)CCCl)cc3)C3=C4CCC(=O)C=C4CCC3C1CC[C@@H]2O (some centres undefined)	20.2	47.2 µM
Cc1ccc([N+](=O)[O-])cc1S(=O)(=O)Nc1ccc(C2=NOC(c3ccco3)C2)cc1 (centres undefined)	–	66.4 µM
C=C(CN1C(=O)CN(C)C1=O)c1ccc(C(=O)Nc2ccccc2N)cc1	12.2	64 µM
CC(CC[C@@H](O)C(C)(C)O)C1[C@@H](O)CC2(C)C3CC(O)C4C(C)(C)[C@@H](OC5OC(CO)C(O)C(O)C5O)CC[C@@]45C[C@@]35CC[C@]12C (some centres undefined)	–	> 10 µM
COc1cc(C=O)cc(/C=N/n2c3ccccc3c3ccccc32)c1O	–	> 100 µM
N.N.N.N.[Co+3].[N-]=[N+]=[N-].[N-]=[N+]=[N-].[N-]=[N+]=[N-]	> 100	> 100 µM
CSC(=Nc1nnc(-c2ccc([N+](=O)[O-])cc2)s1)SC	–	> 100 µM
CCCCCC(C/C=N/N(C)C)C(O)(C(F)(F)F)C(F)(F)F (centres undefined)	–	> 100 µM
CSc1nc(NC2OCC(O)C(O)C2O)c(N)c(=O)[nH]1 (centres undefined)	–	> 100 µM
O=C(NCCCCNc1cccccc1=O)OCc1ccccc1	–	> 100 µM
CCOC(=O)c1cc(=O)c2ccnc3c2n1CCS3	–	> 100 µM
C/C(=C(/C)c1ccc(O)cc1)c1ccc(O)cc1	–	> 100 µM
C[C@@]1(O)C[C@@H](N2C(=O)O[C@@H](c3ccccc3)[C@H]2c2ccccc2)[C@@H]1COCc1ccccc1	–	> 100 µM
Cc1ccc(S(=O)(=O)N2CCC(=O)c3cc(Br)ccc32)cc1	–	> 100 µM
O=c1[nH]nnc2c1ncn2C1OC(CO)C(O)C1O (centres undefined)	11.1	> 100 µM

Structure (SMILES)	GI50 [µM]	TGI
O=C(O)CCCSC(=O)Nc1ccc(N=Nc2ccccc2)cc1	–	> 100 µM
CC1(C)C2CCC13C(=O)C1OC3(C2)C2C(=O)c3cc4ccccc4cc3C(=O)C12 (centres undefined)	8.25	84.2 µM
CC1CCC2(O)C3(C)CC4(O)OC2(C1O)C1(O)C3(O)C(OC(=O)c2ccc[nH]2)C(O)(C(C)C)C41C (centres undefined)	–	> 100 µM
CCN(Cc1cc(Nc2nc(C)cn3c(-c4cn[nH]c4)cnc23)sn1)C(C)(C)CO	0.0488	10.9 µM
COc1ccc(OC)c(-c2nc3n(c2/C=C2/C(=O)Nc4ccccc42)CCS3)c1	–	> 100 µM
Cc1ccc(NCC(=O)N2CC(=O)Nc3ccccc32)c(C)c1	–	> 100 µM
Fc1ccc(C2CC(c3cccc(Nc4ccncc4)c3)=NN2c2ccc(Cl)cc2)cc1 (centres undefined)	1.6	3.09 µM
Fc1ccc(C(OCCN2CCN(CCCCl)CC2)c2ccc(F)cc2)cc1	–	> 100 µM
COC(=O)[C@H](Cc1ccccc1)NP(=O)(OCCC#N)OCC1OC(n2cc(C)c(=O)[nH]c2=O)CC1N=[N+]=[N-] (some centres undefined)	–	> 100 µM
COc1ncnc2c(-c3ccccc3)cn(COCc3ccccc3)c12	11.3	> 100 µM
O=C(O)CN(CC(=O)O)Cc1cc(C#Cc2ccc(C#Cc3ccccc3)cc2)cc(CN(CC(=O)O)CC(=O)O)n1	–	> 94.2 µM
CCCCON(OC(=O)c1ccc2ccccc2c1)C(=O)c1ccccc1	> 100	> 100 µM
C[C@]12CC[C@@H]3c4ccc(OC(=O)N(CCCl)CCCl)cc4CC[C@H]3[C@@H]1CC[C@@H]2O	4.4	32 µM and 9.7 µM
OC(Cc1ccncc1)C(Cl)(Cl)Cl (centres undefined)	> 100	> 100 µM
COc1cccc(N2CCN(CC(=O)N3CCN(c4nnc(-c5ccc(Cl)cc5)c(-c5ccc(Cl)cc5)n4)CC3)CC2)c1	> 100	> 100 µM
COC(=O)C1=C(C)C(=O)[C@]23C(CCCC[C@H]12)C(=O)[C@H](C(=O)OC)C3C (some centres undefined)	–	> 100 µM
CC1=C(C(=O)Nc2cc(=O)n(C)c(=O)n2C)C(c2ccco2)C(C(=O)Nc2cc(=O)n(C)c(=O)n2C)=C(C)N1	–	> 100 µM
O=C1N=C(SC(SC2=NC(=O)C3(NN2)c2ccccc2-c2ccccc23)=C(SC2=NC(=O)C3(NN2)c2ccccc2-c2ccccc23)SC2=NC(=O)C3(NN2)c2ccccc2-c2ccccc23)NNC12c1ccccc1-c1ccccc12	–	> 10 µM
C=C(C)C(O)CCC1(C)C=Cc2c(c(C)cc3c2[nH]c2ccccc23)O1 (centres undefined)	7.87	25 µM and 20.4 µM
CCOC(=O)C12CCCC1(O)N(NC(=O)OC(C)(C)C)C(C)=C2C(=O)OC (centres undefined)	–	> 100 µM
CC(C)=CC1C[C@H](C2CC=C3C2(C)CCC2[C@@]3(C)C(=O)CC3[C@]2(C)C=CC(=O)[C@]3(C)CO)CO1 (some centres undefined)	–	47.6 µM
CN1Cc2cc3cc4c(cc3nc2N(C)C1)OCCO4	–	> 100 µM
CCOC(=O)/C(C=Nc1ccc(-c2nc3ccccc3[nH]2)cc1)=C(/C)O	15.4	> 50 µM
Cc1cc(CC(=O)NCCO)n(CCO)c(=O)c1	–	> 100 µM

Structure (SMILES)	GI50 [µM]	TGI
O=C1CC(O)CC(=O)C1=C(O)CCCCCCCCCCc1ccccc1 (centres undefined)	–	> 100 µM
COC1=C(N)C(=O)c2nc(C)ccc2C1=O	–	11.6 µM
CCN(Cc1ccc(Cl)cc1)c1ccc(CO)c(Cl)c1	7.79	22.2 µM
COc1ccc(CCCCl)c(C2=NCCc3cc(OC)c(OC)cc32)c1	–	> 100 µM
C/C=C(\C)C(=O)NC1=CC[C@@]2(C)C(=CCC3C2CC[C@@]2(C)C3CC[C@@H]2C(C)N(C)C)C1=O (some centres undefined)	3.09	> 28.7 µM
C[C@]12CC[C@@H]3c4ccc(O)cc4CC[C@H]3[C@@H]1CC[C@@H]2OP(=O)(O)O	–	> 100 µM
O=C(Nc1ccc([As](=O)(O)O)cc1)Nc1cccc(Cl)c1Cl	–	> 100 µM
N#CC1(C#N)C2(c3ccccc3)OC(c3ccccc3)(c3cc4ccccc4cc32)C1(C#N)C#N	–	31 µM
COc1ccc([C@H]2CC(=O)C[C@H](c3ccc(OC)cc3)C23C(=O)c2ccccc2C3=O)cc1	–	> 100 µM
CCN(CC)CCNc1ccc2nnn3c4ccc(C)cc4c(=O)c1c23	–	21.3 µM
O=c1cc(-c2ccccc2)c2ccccc2[nH]1	–	> 100 µM
Cc1c2ccncc2c(C)c2c1[nH]c1ccc(OC(C)C)cc12	–	2.82 µM
C[C@H](NC(=O)[C@@H](C)N)[C@H](Oc1ccc2c(cnn2-c2ccc(F)cc2)c1)c1ccc2c(c1)OCCO2	3.2	11.8 µM
O=C(O)CCN(CCCCN(CCC(=O)O)CCC(=O)O)CCC(=O)O	–	> 100 µM
CN(Cc1ccccc1)C(=NC#N)N(Cc1ccccc1)Cc1ccccc1	–	> 100 µM
COc1ccc(/C=N/N=C(\N)NO)cc1O	–	> 100 µM
CC(=O)c1ccc2c(c1)c1c(C)c3c[n+](C)ccc3c(C)c1n2C	–	77.3 µM
N#C[C@@H](c1nc2ccccc2s1)c1ncccc1[N+](=O)[O-]	–	> 31.6 µM
N=C1C(c2nc3ccccc3s2)=C(O)CN1c1ccc(F)c(Cl)c1	25.6	> 100 µM
C=CCNC(=O)N(CCCCC(NC(C)=O)C(=O)NCc1ccccc1)Cc1ccccc1 (centres undefined)	–	> 100 µM
OC1c2ccccc2CC12Cc1ccccc1C2 (centres undefined)	–	> 100 µM
